Laboratory results published in PubChem BioAssay AID889 (National Center for Advancing Translational Sciences (NCATS), 2007).
About 15 (0.02%) of roughly 75,000 compounds were called active. Inconclusive results, whose numbers are uncertain, are shown with a selection of clear calls. Calls come from the whole dose curve; as a rule, active = well fitted inhibition curve with a large enough effect in the main read-out, with a control signal flat (not every such curve was filed as active); inconclusive = small, poorly fitted or top-dose-only effect, or a change in a side signal; inactive = flat fitted curve, though single readings scatter. Where the call is inconclusive, the potency comes from a doubtful curve fit. “Side channel” marks fits to a control or component signal instead of the main read-out.

These compounds were tested against Caspase-7 (Homo sapiens) (UniProt P55210) (assay: qHTS Assay for Allosteric/Competitive Inhibitors of Caspase-7). Details: recombinant caspase-7, Ac-DEVD-AFC fluorescence rate; series mostly up to 57.5 µM.
Potency is the fitted concentration of half-maximal effect; tags give direction and shape of the fitted curve or compound fluorescence and quenching.

Chain of UniProt P55210 (P55210 whole entry, looked up): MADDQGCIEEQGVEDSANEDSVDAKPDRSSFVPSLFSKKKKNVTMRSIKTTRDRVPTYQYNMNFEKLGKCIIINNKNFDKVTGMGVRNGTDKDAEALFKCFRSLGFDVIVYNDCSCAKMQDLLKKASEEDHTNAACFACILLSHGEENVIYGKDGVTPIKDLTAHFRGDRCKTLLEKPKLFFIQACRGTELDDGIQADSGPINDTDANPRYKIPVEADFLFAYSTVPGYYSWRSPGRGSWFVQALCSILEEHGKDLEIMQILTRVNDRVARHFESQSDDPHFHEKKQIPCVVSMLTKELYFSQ

| SMILES | Potency |
| --- | --- |
| CN1CCc2c(sc3c2c(NCc2ccco2)nc2nnnn23)C1 | inconclusive: 25.1 µM [inhibitor, single point] |
| CCN1CCCC1CN=Cc1c(O)n(-c2ccccc2)c(=O)c2ccccc12 (centres undefined) | inconclusive: 25.1 µM [fluorescent, partial curve] |
| COc1cccc(Nc2ncc3nc(-c4cccs4)c(=O)n(CCC#N)c3n2)c1 | inconclusive: 3.16 µM [inhibitor, full curve] |
| COCCNc1cc(-c2ccccc2C)ncn1 | inconclusive: 25.1 µM [inhibitor, single point] |
| COC(=O)c1ccc(C(=O)OC)c(N)c1 | inconclusive: 15.8 µM [fluorescent, partial curve] |
| CN(C)c1ccc(NC(=O)Cn2cc3c(n2)CCCC3)cc1 | inactive |
| CCCC(=O)Nc1cc(OC)c(OC)cc1C(=O)O | inactive |
| N#CCCn1c(=O)c(-c2ccccc2)nc2cnc(OCc3ccccc3)nc21 | inconclusive: 31.6 µM [inhibitor, single point] |
| COC(=O)Cn1ncc2c(C)n(Cc3ccccc3)c(C)c2c1=O | inactive |
| CCN1C(=O)C2(Nc3ccccc3-c3nc4ccccc4n32)c2cc(OC)ccc21 (centres undefined) | inactive |
| COC(=O)c1ccc(C(NC(=O)OCc2ccccc2)/C(I)=C/[C@@H](C)C(=O)NCc2ccc(OC)c(O)c2)cc1 (some centres undefined) | inactive |
| CC(=O)Nc1ccc2oc(-c3ccccc3Br)nc2c1 | inactive |
| COc1ccc(OC)c2c(=S)c3ccccc3[nH]c12 | inconclusive: 25.1 µM [fluorescent, side channel, partial curve] |
| Cc1c(O)ccc2c3c(c(=O)oc12)CCC(C)C3 (centres undefined) | inconclusive: 25.1 µM [fluorescent, partial curve] |
| Cc1cccc(S(=O)(=O)C(C#N)c2nc3ccccc3nc2N2CCCC2)c1 (centres undefined) | inconclusive: 15.8 µM [inhibitor, partial curve] |
| CCN(CC)c1ccc2oc(=O)c(C)nc2c1 | inconclusive: 15.8 µM [fluorescent, side channel, partial curve] |
| CN(C)c1ncc2nc(-c3cc(F)cc(F)c3)c(=O)n(C3CC3)c2n1 | inconclusive: 7.94 µM [fluorescent, side channel, partial curve] |
| COc1cccc(Cn2c(=S)[nH]c3ccc(N4CCOCC4)cc3c2=O)c1 | inconclusive: 25.1 µM [fluorescent, partial curve] |
| CCOC(=O)c1cc2c(=O)n3ccccc3nc2n(Cc2ccco2)c1=NC(=O)c1cccnc1 | inconclusive: 2.51 µM [fluorescent, side channel, full curve] |
